# Reference: paper PMC4336329 (PLoS ONE, 2015)
# Screen size: about 310,000 compounds; about 14,000 (4.5%) showed an effect of 50% or more. The effect is printed as a negative number. This is one part of the list.
# Target: human ether-à-go-go-related gene (hERG) potassium channel (human, UniProt Q12809)
# Experiment: primary screen, population patch clamp on CHO cells stably expressing hERG
# 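Also: peak tail current of the secondary pulse compared with the same well before compound.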
# Chain of human ether-à-go-go-related gene (hERG) potassium channel (Q12809 whole entry, looked up): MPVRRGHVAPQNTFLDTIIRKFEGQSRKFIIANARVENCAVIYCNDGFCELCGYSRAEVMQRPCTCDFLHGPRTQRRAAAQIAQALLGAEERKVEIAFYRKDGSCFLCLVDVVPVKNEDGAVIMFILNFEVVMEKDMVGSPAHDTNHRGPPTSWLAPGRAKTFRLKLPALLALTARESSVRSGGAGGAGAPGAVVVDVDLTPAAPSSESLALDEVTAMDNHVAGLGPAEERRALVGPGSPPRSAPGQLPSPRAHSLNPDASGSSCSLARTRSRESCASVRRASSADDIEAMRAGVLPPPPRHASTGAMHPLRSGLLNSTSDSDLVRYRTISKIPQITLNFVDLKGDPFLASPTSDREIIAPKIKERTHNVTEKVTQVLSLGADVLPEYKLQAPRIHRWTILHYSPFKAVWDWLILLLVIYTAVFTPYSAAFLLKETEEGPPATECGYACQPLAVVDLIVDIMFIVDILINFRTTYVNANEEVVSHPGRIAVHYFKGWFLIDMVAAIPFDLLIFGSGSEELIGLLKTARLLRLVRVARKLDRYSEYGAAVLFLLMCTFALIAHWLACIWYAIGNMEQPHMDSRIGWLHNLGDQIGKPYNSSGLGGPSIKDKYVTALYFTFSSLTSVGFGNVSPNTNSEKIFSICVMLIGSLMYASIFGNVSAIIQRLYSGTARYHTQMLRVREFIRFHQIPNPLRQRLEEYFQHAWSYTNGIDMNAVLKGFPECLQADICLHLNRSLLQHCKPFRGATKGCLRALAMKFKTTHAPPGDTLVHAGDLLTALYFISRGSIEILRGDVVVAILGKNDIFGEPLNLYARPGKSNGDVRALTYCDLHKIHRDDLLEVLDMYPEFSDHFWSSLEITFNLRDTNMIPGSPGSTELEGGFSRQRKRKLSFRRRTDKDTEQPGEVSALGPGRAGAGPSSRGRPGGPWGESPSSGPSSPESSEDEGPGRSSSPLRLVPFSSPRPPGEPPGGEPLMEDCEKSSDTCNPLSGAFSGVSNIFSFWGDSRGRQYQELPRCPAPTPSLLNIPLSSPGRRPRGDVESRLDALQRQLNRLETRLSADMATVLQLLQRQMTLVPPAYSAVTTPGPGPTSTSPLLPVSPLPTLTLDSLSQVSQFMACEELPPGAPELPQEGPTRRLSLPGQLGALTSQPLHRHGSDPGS
row,SMILES,"hERG current change (%, negative = inhibition) at 10uM [%]"
1,C/C(=N/O)c1cccc(N2Cc3ccccc3C2)c1,3.23
2,Cc1ccc(C)c(OCCC(=O)Nc2ccc(S(=O)(=O)N3CCCC3)cc2)c1,13.1
3,CS(=O)(=O)Nc1ccc(C(=O)NCc2cccnc2)cc1,1.62
4,Cc1[nH]n(-c2ccccc2)c(=O)c1/C=N/N(c1ccccc1)c1ccccc1,41.6
5,O=C(c1nc(-c2ccccc2)n(-c2ccccc2)n1)N1CCCCCC1,-24.5
6,O=C(Nc1ccccc1N1CCOCC1)c1ccncc1,-1.93
7,COc1ccc(CCn2c(=N)c(C(=O)NCC3CCCO3)cc3c(=O)n4cccc(C)c4nc32)cc1 (stereo not shown),-79.7
8,C=CCn1c(SCc2c(C)noc2C)nc2sc3c(c2c1=O)CCCC3,-7.01
9,Cc1cccc(CS(=O)(=O)Cc2ccc(C(=O)NCc3ccccc3)o2)c1,-19.9
10,COc1ccccc1NCCC(=O)OCC(=O)NC1CCCCCC1,27.1
11,O=C(O)c1ccc(-n2cccc2/C=N\NC(=O)c2cc3cc(Br)ccc3o2)cc1,10.1
12,CCC(=O)NC(c1cccs1)c1ccc2cccnc2c1O (stereo not shown),13
13,CC(C)C(=O)N=C1SC2CS(=O)(=O)CC2N1Cc1ccc(Cl)cc1 (stereo not shown),9.08
14,CC(C)c1ccc(/C=C/C(=O)NCCCN2CCOCC2)cc1,-39
15,CN(C)c1ccc(-n2cccc2)cc1,6.37
16,O=C(CC1C(=O)NCCN1Cc1ccccc1C(F)(F)F)NC1CCCC1 (stereo not shown),-10.9
17,COc1cccc(/C=N/NC(=O)c2ccc(N(C)S(=O)(=O)c3ccccc3)cc2)c1OC,0.494
18,COc1cc(-c2nc3ccccn3c2NCC2CCCO2)ccc1O (stereo not shown),-17.9
19,COc1ccccc1NC(=O)CN1CCN(c2ccccc2F)CC1,-18.4
20,O=c1[nH]c(SCc2nc3ccccc3n2Cc2ccccc2)nc2ccccc12,10.6
21,CCOCCCNC(=O)c1c(C)[nH]c(C(=O)OCC)c1C,-9.77
22,O=C(CCc1ccc(S(=O)(=O)N2CCCCC2)cc1)c1nnc(-c2ccccc2)o1,-12.7
23,COc1cccc(C=Nc2cccnc2)c1O,-2.5
24,Cc1c(OCC(=O)NC(Cc2c[nH]c3ccc(O)cc23)C(=O)O)ccc2c3c(c(=O)oc12)CCC3 (stereo not shown),-2.19
25,CC(C)CCc1noc(CN(C)CCC2CCOCC2)n1,18.1
26,COCCN(CC(=O)NCC1CCCO1)C(=O)CCC(=O)Nc1cc(C)ccn1 (stereo not shown),11.3
27,COc1ccc(/C=C2\SC(=O)N(CC(=O)NC3CCS(=O)(=O)C3)C2=O)cc1 (stereo not shown),21.9
28,Cc1nc2ccc(S(=O)(=O)N3CCCCC3)cc2s1,0.757

row,SMILES,"hERG current change (%, negative = inhibition) at 10uM [%]"
1,N#CCC(=O)Nc1ccc(C(=O)NCCC(c2ccccc2)c2ccccc2)cc1,22.4
2,Cc1nnc(SCC2=C(C(=O)O)N3C(=O)C(NC(=O)Cn4nc(C)c(Cl)c4C)C3SC2)s1 (stereo not shown),28
3,O=C(Cc1ccc(Cl)cc1)c1c[nH]c(C(=O)NCCCn2ccnc2)c1,-43.9
4,O=C(OCc1nc2ccccc2s1)c1cnccn1,-17.3
5,O=C(N/N=C/c1cccnc1)c1ccccc1OCc1cccc(Br)c1,-17.1
6,CCC(=O)Nc1nc(N)n(-c2ccccc2)n1,9.2
7,COc1ccc(NC(=O)CN(C)C(=O)CNC(=O)C2CCCCC2)cc1,3.42
8,CCCCCC1CCC(c2ccc(/C(N)=N/O)cc2)CC1 (stereo not shown),22.8
9,COc1ccccc1NC(=O)C1CCCN1S(=O)(=O)c1ccc(Cl)cc1 (stereo not shown),9.52
10,CC(C)c1cc(C(=O)N2CCCC(C(=O)c3ccc4ccccc4c3)C2)on1 (stereo not shown),-21.8
11,O=S(=O)(c1ccc(NC(=S)N/N=C/c2ccc(Oc3ccccc3)cc2)cc1)N1CCOCC1,1.52
12,CCCc1cc(=S)n2c([nH]c3ccccc32)c1C#N,1.66
13,CC(=O)Nc1ccc(NC(=O)Cn2cnc3c(nnn3Cc3ccc(F)cc3)c2=O)cc1,24.2
14,CC(C)COC(=O)n1c(=O)oc2cc(S(=O)(=O)N3CCCCC3)ccc21,-6.37
15,CC(Sc1ncnc2c1cnn2-c1ccccc1)C(=O)Nc1ccc(N2CCOCC2)cc1 (stereo not shown),17.2
16,CCOc1ccccc1C(=O)NCC(=O)NCC(c1ccc(OC)cc1)N1CCOCC1 (stereo not shown),-12.4
17,CCn1ccnc1CN1CCN(CCC(C)C)C(CCO)C1 (stereo not shown),18.9
18,Cc1cc(C)n2nc(C(=O)OCC(=O)Nc3ccc4c(c3)OCCO4)nc2n1,3.56
19,CCOc1cc(/C=C(\CC(=O)O)c2nc3ccccc3s2)ccc1OC,-0.579
20,COc1cc(O)c(C(CCN2CCN(c3ccccc3)CC2)c2ccc3c(c2)OCO3)c(OC)c1 (stereo not shown),-16.6
21,CCn1c(O)c(N=Nc2cccc(S(=O)(=O)N3CCOCC3)c2)c(=O)n(CC)c1=S,-8.78
22,O=C(CSc1nnc(NC(=O)C2CC2)s1)Nc1ccc2c(c1)OCCO2,5.48
23,CCOC(=O)C1(Cc2ccc(Cl)cc2)CCN(C(=O)C2=NNC(=O)CC2)CC1,-69.6
24,Nc1nc(SCn2nnc3ccccc3c2=O)n[nH]1,18.4
25,COc1cccc(C(=O)CN2C(=O)C(C)(C)Oc3ccc(C(=O)N4CCCCCC4)cc32)c1,-9.93
26,O=C(COc1ccccc1Cl)NNC(=O)c1ccc2nc[nH]c2c1,1.82
27,CCOC(=O)[C@H]1[C@H]2COc3ccc(Cl)cc3[C@@H]2N2C(=O)CN(Cc3ccc(C)cc3)C(=O)[C@@]12C,5.81
